By Kd is commonly meant the constant that tells how readily two partners part at equilibrium. The low end stands for higher affinity, the high end for lower affinity.

Assay in all cases: BLI, 25C
In general terms: Biolayer interferometry detects binding as a change in optical thickness at a sensor tip.

Test [1] deals with T1, Activin A (human, UniProt P08476).
T1 chain: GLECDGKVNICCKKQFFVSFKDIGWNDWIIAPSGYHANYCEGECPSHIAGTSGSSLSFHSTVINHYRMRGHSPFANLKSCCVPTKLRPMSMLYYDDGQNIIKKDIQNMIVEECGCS

In test [2] the target is GDF-8 (human, UniProt O14793).
UniProt O14793, sequence (O14793 267-375): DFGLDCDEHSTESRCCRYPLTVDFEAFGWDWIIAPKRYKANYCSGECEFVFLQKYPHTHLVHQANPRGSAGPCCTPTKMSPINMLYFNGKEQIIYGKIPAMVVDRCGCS
In test [3] the target is T2, BMP-10 (human, UniProt O95393).
T2 chain: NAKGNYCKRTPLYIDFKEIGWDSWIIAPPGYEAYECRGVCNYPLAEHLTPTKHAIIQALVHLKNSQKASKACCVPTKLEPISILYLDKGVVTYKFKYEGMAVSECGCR

In test [4] the target is T3, GDF-11 (UniProt O95390).
T3 chain: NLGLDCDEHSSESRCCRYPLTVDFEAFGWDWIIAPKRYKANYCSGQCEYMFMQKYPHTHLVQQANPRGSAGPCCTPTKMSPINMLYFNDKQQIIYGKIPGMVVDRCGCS

Test [5] has as its target T1, Activin A.
Test [6] addresses T1, Activin A.
Test [7] deals with T4, Activin B (UniProt P09529).
T4 chain: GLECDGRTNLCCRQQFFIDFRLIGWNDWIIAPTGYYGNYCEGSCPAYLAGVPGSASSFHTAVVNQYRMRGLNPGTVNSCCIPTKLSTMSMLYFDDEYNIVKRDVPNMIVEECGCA

Where two headings read alike, the source gives them in different places.

B1: ACVR2A-24A/47A-Fc (protein)
chain: AILGRSETQECLFFNANWEKDRTAQTGVEPCYGDKDKRRHCFATWKAISGSIEIVKQGCWLDDINCYDRTDCVEKKDSPEVYFCCCEGNMCNEKFSYFPEMEVTQPTSNPVTPKPGGGGSGGGGSGGGGS[skipping human IgG1 Fc]
As to B1, the binding result in test [1] is “no binding”.

B2: ACVR2A-Fc (WT) (protein)
chain: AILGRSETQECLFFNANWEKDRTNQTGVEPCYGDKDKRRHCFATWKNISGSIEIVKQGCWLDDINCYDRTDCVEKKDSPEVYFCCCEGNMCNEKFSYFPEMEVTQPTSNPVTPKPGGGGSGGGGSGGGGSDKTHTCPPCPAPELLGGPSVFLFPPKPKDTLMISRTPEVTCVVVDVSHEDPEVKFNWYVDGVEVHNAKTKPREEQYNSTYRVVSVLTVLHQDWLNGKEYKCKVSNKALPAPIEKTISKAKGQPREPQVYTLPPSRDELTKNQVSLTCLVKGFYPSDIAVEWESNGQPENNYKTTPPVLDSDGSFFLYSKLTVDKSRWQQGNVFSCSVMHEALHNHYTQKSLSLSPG
modifications: homodimer, ACVR2A ECD-linker-IgG1 Fc fusion
With B2, the equilibrium dissociation constant (Kd) in test [2] worked out at 9.65 nM; in test [3], 2.23 nM; in test [4], 8.48 nM; in test [5] it was 0.351 nM; in test [6], 0.0803 nM; in test [7], 4.62 nM.

For the origin of these results see patent US20260308230 (published 2026).
